# According to the supplement of paper PMC12217912:
# This is one part of the list. Sequences were assembled here from the parent chain. Values near 0.05 are background.
# B1: TEV protease; numbered along this chain (parent)
# chain: MGESLFKGPRDYNPISSSICHLTNESDGHTTSLYGIGFGPFIITNKHLFRRNNGTLVVQSLHGVFKVKDTTTLQQHLVDGRDMIIIRMPKDFPPFPQKLKFREPQREERICLVTTNFQTKSMSSMVSDTSCTFPSGDGIFWKHWIQTKDGQCGSPLVSTRDGFIVGIHSASNFTNTNNYFTSVPKNFMELLTNQEAQQWVSGWRLNADSVLWGGHKVFMVKPEEPFQPVKEATQL
# Variants of: B1
# Test: raw area under fraction-flipped curve 0-4 h after induction (AUC4h, not background-subtracted), DNA-recorder readout of cleavage of the substrate (dimensionless); higher = more cleavage of the substrate by the protease variant
# Conditions: temperature: 34 °C; time window: 0-4 h after rhamnose induction
# 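Also: Bxb1 expression induced with 0.2% (w/v) L-rhamnose at OD600 near 0.5, cultures sampled hourly, flipped fraction per protease–substrate barcode pair counted by paired-end Illumina sequencing.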
Variant,area with substrate EALYFQS,area with substrate ECLYFQS,area with substrate EDLYFQS,area with substrate EFLYFQS,area with substrate EHLYFQS,area with substrate EILYFQS,area with substrate EKLYFQS,area with substrate ELLYFQS,area with substrate EMLYFQS,area with substrate EPLYFQS,area with substrate EQLYFQS,area with substrate ERLYFQS,area with substrate ESLYFQS,area with substrate ETLYFQS,area with substrate EWLYFQS,area with substrate EYLYFQS,area with substrate EELYFQS,area with substrate EVLYFQS,area with substrate EGLYFQS
I43N,0.0471,0.0281,0.0528,0.0328,0.0451,0.052,0.0493,0.0508,0.0581,0.0551,0.0487,0.0578,0.0376,0.0494,0.0491,0.0413,–,–,–
I43S,0.0737,0.0494,0.0523,0.0626,0.0896,0.0814,0.0481,0.0525,–,0.0515,0.0559,0.0651,0.0564,–,0.0484,0.0496,0.0543,0.0554,–
I43A,0.0994,0.0642,0.0879,0.0793,0.0812,0.0687,0.0811,0.0721,0.0875,0.0917,0.0806,0.082,0.0758,0.102,0.0675,0.0609,0.0997,0.0575,–
I43Q,0.0458,0.0502,0.0534,–,0.0435,0.045,0.0336,0.0421,0.0528,–,0.0477,0.0856,0.0451,–,0.0483,0.0313,0.0511,0.0465,–
T147Q,0.0641,0.0654,0.0763,–,0.0699,–,0.06,–,–,0.083,0.0413,0.0659,0.0663,–,–,–,0.0615,0.0744,–
Q146M,0.159,0.141,0.126,0.16,–,0.155,0.122,–,–,0.139,0.152,0.127,0.233,–,–,0.165,–,0.116,0.0895
T71E,0.103,0.0784,0.117,0.114,0.0963,0.0613,0.0458,–,0.0913,0.0856,0.106,0.0811,0.083,0.102,0.0803,–,0.0955,0.0829,0.0767
R10M,0.126,0.114,0.158,–,0.127,–,–,–,–,0.134,0.137,–,–,0.116,–,–,0.13,0.116,0.0961
S17A,0.145,0.127,0.0957,0.134,0.112,0.114,–,–,0.134,–,0.12,0.114,0.0893,0.0717,–,–,–,0.0887,0.0746
E3Q,0.113,0.106,0.0937,–,0.103,–,0.0794,0.0918,0.0907,–,–,0.0743,0.0995,–,0.0771,0.116,–,0.0866,0.107
G166A,0.0605,0.0494,0.0503,–,–,0.0421,0.0467,0.0331,0.0537,0.049,0.046,0.0545,0.0533,–,0.0499,–,0.0938,0.0469,0.0643
I86V,0.112,0.0923,0.119,0.091,0.065,0.0768,–,0.0859,0.172,0.0779,0.123,0.0814,0.0955,0.115,0.0739,–,0.122,0.079,–
S154H,0.123,0.103,0.11,–,0.108,0.0884,0.0908,0.0934,–,0.0974,–,0.0966,0.0984,–,–,–,0.12,0.0817,0.0708
L191A,0.135,0.0686,0.0991,0.0649,–,0.0795,0.0718,0.0648,0.0687,0.062,0.0688,0.0615,0.0652,0.0669,–,–,0.0658,0.0404,0.0649
V220W,0.136,0.1,0.121,–,0.094,0.0922,0.0739,0.0626,0.0956,0.085,0.104,0.0802,0.1,0.109,0.0837,–,0.103,0.0448,0.0908
T44P,0.0481,0.0389,0.0423,–,0.0298,0.0328,–,–,–,–,0.049,0.0413,0.0543,–,0.0252,0.0213,0.0615,–,–
E195K,0.112,0.0969,0.112,0.105,0.0868,0.0973,0.0788,0.0846,0.119,0.111,–,0.0909,0.0913,0.0804,–,–,–,0.0846,0.0865
H29N,0.106,0.108,0.122,0.0992,–,0.103,0.135,–,0.102,0.126,0.094,0.105,0.0993,0.102,0.0823,0.11,0.11,0.0937,–
P222F,0.0764,0.0939,0.121,–,0.0991,0.0906,0.0881,0.076,0.0822,0.112,0.0854,0.0737,0.0795,–,0.085,0.079,–,0.0816,0.0582
R50H,0.123,0.108,0.144,–,–,0.0852,0.116,–,0.11,0.131,0.144,0.126,–,–,0.0997,0.125,0.16,0.0918,–
R50K,0.132,0.0936,0.154,0.0762,0.1,0.0978,0.0954,0.0935,0.118,0.124,0.0799,0.106,0.0886,0.0729,0.112,0.102,–,–,–
K46M,0.0945,0.0763,0.0723,–,0.0874,0.0706,0.0806,0.0749,–,0.111,0.0866,–,0.0787,0.0814,0.103,0.0023,0.0812,0.0884,0.0619
K46C,0.141,0.0973,0.131,–,0.103,0.0855,0.0871,0.0844,–,0.0995,0.108,0.11,0.1,–,0.0887,0.0939,0.124,–,0.0862
N13E,0.116,0.0892,0.133,–,0.123,0.097,–,0.137,0.108,0.0927,0.0782,0.108,–,0.0936,0.107,–,0.115,0.101,–

Variant,area with substrate EALYFQS,area with substrate ECLYFQS,area with substrate EDLYFQS,area with substrate EFLYFQS,area with substrate EHLYFQS,area with substrate EILYFQS,area with substrate EKLYFQS,area with substrate ELLYFQS,area with substrate EMLYFQS,area with substrate EPLYFQS,area with substrate EQLYFQS,area with substrate ERLYFQS,area with substrate ESLYFQS,area with substrate ETLYFQS,area with substrate EWLYFQS,area with substrate EYLYFQS,area with substrate EELYFQS,area with substrate EVLYFQS,area with substrate EGLYFQS
C111S,0.126,0.0972,0.15,–,0.119,0.0824,0.0935,0.0878,0.0922,0.11,0.123,0.111,0.107,0.126,0.0993,0.0671,0.124,0.104,–
V217P,0.0577,0.0544,0.0496,–,0.0695,0.0525,0.0633,0.0575,0.0648,0.0669,0.0542,–,0.0618,–,0.0664,0.0663,–,0.0518,0.054
R109I,0.0964,0.0954,0.0965,–,0.114,0.0856,0.0861,0.0987,0.0982,0.109,0.0813,0.0796,0.0886,–,0.0725,–,0.111,0.076,0.0836
T23Y,0.0968,0.0766,0.0998,0.0892,0.0944,0.0837,0.0759,–,0.0849,0.108,0.105,0.0909,0.0892,0.1,0.103,0.0909,0.101,0.09,–
I36M,0.104,0.0932,0.127,–,0.0933,0.0923,–,–,0.0992,0.115,0.103,–,0.084,–,0.0913,0.101,0.1,0.0813,–
S121H,0.115,0.114,0.129,–,0.103,0.116,0.126,0.132,0.118,0.115,0.118,0.113,0.12,0.12,0.0863,0.119,–,–,0.117
Q227K,0.131,0.125,0.18,–,0.0957,0.102,0.0492,0.0911,–,0.128,0.129,0.112,0.105,0.102,0.109,0.101,0.127,0.0786,0.101
I15K,0.0692,0.0757,0.0786,–,0.0551,0.0605,0.057,0.0629,0.0663,0.0612,0.0805,–,0.0656,–,–,0.0607,0.0698,0.0554,0.063
G162P,0.0656,0.0663,0.0853,0.064,–,0.0656,0.0522,–,0.0709,0.0595,0.0359,0.0702,0.0667,–,–,–,0.0684,0.0541,–
P9F,0.0895,0.0617,0.0627,0.0563,0.062,0.0577,–,0.0488,0.0642,–,0.0592,0.0576,0.0676,–,0.0487,–,0.0683,0.0649,0.0545
L73I,0.158,0.0925,0.118,–,–,–,0.123,0.0726,0.118,–,0.108,–,0.0963,0.0977,0.0773,–,0.0983,0.0771,0.0781
P14M,0.0877,0.099,0.144,–,0.101,0.106,0.0991,0.104,–,–,0.148,0.0878,0.113,0.148,0.0916,0.0997,–,0.11,0.137
G28D,0.103,0.0894,0.113,0.0893,0.0993,0.09,0.0893,0.0947,0.133,–,0.108,0.0821,0.113,0.106,0.0879,0.104,0.115,0.0981,–
G28I,0.0873,0.0935,0.0812,–,0.0815,0.0769,0.0673,–,0.105,0.114,0.0985,0.0799,0.079,0.0779,–,0.0977,0.0795,0.0709,0.0641
T132I,0.117,0.097,0.153,0.0753,0.102,0.0963,0.11,0.101,–,0.109,0.116,0.0978,0.0987,–,0.112,–,0.119,0.106,–
D69E,0.0978,0.136,0.105,–,0.0923,0.133,–,0.0592,–,0.105,0.111,0.111,0.0954,0.0856,0.121,–,0.0985,0.0875,0.116
L33M,0.08,0.0702,0.101,–,–,0.0701,0.0672,0.0671,0.098,0.0768,0.0829,0.0642,0.0816,0.0774,0.0793,0.0591,0.0851,0.0641,0.0754
K230D,0.109,0.147,0.14,–,0.108,0.177,0.13,0.0869,0.0564,0.111,0.116,0.0893,0.114,–,0.0586,–,0.144,0.125,–
L61H,0.118,0.11,0.119,–,0.0639,0.0939,0.115,0.109,0.107,0.176,0.12,–,0.0965,0.129,0.102,0.098,0.129,0.109,0.0861
T31A,0.106,0.105,0.111,–,–,0.103,–,0.0909,–,–,–,0.159,0.124,0.138,–,0.101,0.117,0.111,0.0755
F49A,0.0388,0.0651,0.0748,–,0.0393,0.0531,–,0.057,0.0503,–,0.0569,0.0529,0.0538,0.0581,0.0557,0.0579,0.0634,0.0775,0.0464
F49M,0.0781,0.0698,0.0822,0.0691,0.0637,0.0434,0.0716,0.0652,0.0617,0.0774,0.0672,0.0626,0.0684,–,0.0645,0.0807,–,0.0633,0.0602
F41I,0.123,0.0884,0.119,0.0949,0.102,–,0.0776,0.0713,0.101,0.113,–,0.0966,0.0889,–,–,0.0978,0.111,0.0933,–
